Read counts are not given, so values of variants with three or more changes are uncertain.
B1: CPEB3 Ribozyme (parent)
chain: UAACAGGGGGCCACAGCAGAAGCGUUCACGUCGCAGCCCCUGUCAGAUUCUGGUGAAUCUGCGAAUUCUGCUGUAUAUCUC

Variants of: B1
Test: self-cleavage, relative activity (ratio to wild type); higher = more cleavage; in vitro, sequencing
In short: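 Relative activity compares each variant's cleaved/total read fraction with that of the unmutated ribozyme. To get these fractions, barcoded CPEB3 ribozyme libraries from rounds of error-prone PCR were transcribed with T7 RNA polymerase for 5 hours at 37°C and then given 15 min of DNase I treatment before EDTA was added. The RNAs were reverse transcribed with template switching and sequenced on Illumina, and DNA sequencing linked barcodes to variants. A minimum of 5 reads applied, and three batches were averaged.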
Variant UAACAGGGGGCCACAGCAGAAGCGUUCUCGUCGCAGCCCCCGUCAGAUUCUGGUGAAACCGCGAGUUCUGCUGUGUCUCUC [A28U U41C U58A U60C A65G A75G A77C] has a self-cleavage of 0.05.
Variant UAACAGGGGGCCACAGCAGAAGCGUUCUCGUCGCAGCCCCAGUCAGAUUCUGGUGAAUUUGCGAAUUCUGCUGUAUAUCUC [A28U U41A C59U] has a self-cleavage of 0.26.
In the case of UAACAGGGGGCCACAGCAGAAGCGUUCUCGUCGCAGCCCCCGUCAGAUUCUGGUGAAUCUGUGAAUUCUGAUGUAUAUCUC [A28U U41C C62U C71A], the self-cleavage is reported as 0.09.
UAACAGGGGGCCACAGCAGAAGCGUUCUCGUCGCAGCCCCUGUCAGACUCUGGUGAAUCUGCGAAUUCUGCUGUAAAUCUC [A28U U48C U76A] gave a self-cleavage of 0.43.
In the case of UAACAGGGGGCCACAGCAGAAGCGUUCUCGUCGCAGCCCCCGUCAGAUUCUGGUGAAUCUGCGAAUCCUGCUGUAUAUCUC [A28U U41C U67C], the self-cleavage is reported as 0.18.
UAACAGGGGGCCACAGCAGAAGCGUUCUCGUCGCAGCCCCCGUCAGACUCUGGUGAAUCUGCGAAUUCUGCUGUAAGUCUC [A28U U41C U48C U76A A77G] gave a self-cleavage of 0.23.
For UAACAGGGGGCCACAGCAGAAGCGUUCUCGUCGCAGCCCCUGUCAGACUCUGGUGAAUCUGCGAGUUCUGCUGUAUAUCUC [A28U U48C A65G], the self-cleavage was 0.09.
In the case of UAACAGGGGGCCACAGCAGAAGCGUUCUCGCCGCAGCCCCUGUCAGAUUCUGGUGAAUCUGCGAAUUCUGCUGUAAAUCUC [A28U U31C U76A], the self-cleavage is reported as 0.6.
Work on UAACAGGGGGCCACAGCAGAAGCGUUCUCGAAGCAGCCCCUGUCAGAUUCUGGUGAAUCUGCGAAUUCUGCUGUACAUCUC [A28U U31A C32A U76C] yielded a self-cleavage of 0.22.
Variant UAACAGGGGGCCACAGCAGAAGCGUUCUCGUCGCAGCCCCCGUCAGACUCUGGUGAAUCUGCGAAUUCUGCUGUAUAUCUC [A28U U41C U48C] has a self-cleavage of 0.83.
For UAACAGGGGGCCACAGCAGAAGCGUUCUCGGCGCCGCCCAUGCCAGAUUCUGGUGAGUCUGCGAAUUCUGCUGUAUAUCUC [A28U U31G A35C C40A U43C A57G], the self-cleavage was 0.1.
Work on UAACAGGGGGCCACAGCAGAAGCGUUCUCGUCGCAGCCCCUGUCAGACUCUGGUGAAUCUGCGGAUUCUGCUGUAAAUCUC [A28U U48C A64G U76A] yielded a self-cleavage of 0.4.
For UAACAGGGGGCCACAGCAGAAGCGUUCUCGUCGCAGCCCCUGACAGUUUCUGGUGAAUCUGCGAAUUCUGCUGUAUAUCAC [A28U U43A A47U U80A], the self-cleavage was 0.37.
With UAACAGGGGGCCACAGCAGAAGCGUUCUCGACGCAGCCCCCGUCAGAUUCUGGUGAAUCUGCGGAUUCUGCUGUAUAUCUC [A28U U31A U41C A64G] the self-cleavage was 0.24.
UAACAGGGGGCCACAGCAGAAGCGUUCUCGUCGCAGCCCCAGUCAGGUUCUGGUGAAUCUGCGAAUCCUGCUGUAUAUCUC [A28U U41A A47G U67C] gave a self-cleavage of 0.12.
Work on UAACAGGGGGCCACAGCAGAAGCGUUCUCGUCGCAGCCCCUGGCAGAUUCUGGUGUAUCUGCGAAUUCUGCUGUAUAUCUC [A28U U43G A56U] yielded a self-cleavage of 0.11.
In the case of UAACAGGGGGCCACAGCAGAAGCGUUCUCGACGCAGCCCCUGUCAGAUUCUGGCGAAUCUGCGAAUUCUGCUGUAUAUCUU [A28U U31A U54C C81U], the self-cleavage is reported as 0.45.
UAACAGGGGGCCACAGCAGAAGCGUUCUCGUCGCAGCCCCUGACAGAUUCUGGUGAAUCUGCGAAUUCUGCCGUAUAUCUC [A28U U43A U72C] showed a self-cleavage of 0.71.
Work on UAACAGGGGGCCACAGCAGAAGCGUUCUCGUCGCAGCCCCUGACAGAUUCUGGUGGAUCUGCGAAUACCGCUGUAUAUCUC [A28U U43A A56G U67A U69C] yielded a self-cleavage of 0.25.
Work on UAACAGGGGGCCACAGCAGAAGCGUUCUCGCCGCAGCCCCUGUCAGAUUCUGGUGAAUCUGCGAAUUCCGCUGUAUAUCUC [A28U U31C U69C] yielded a self-cleavage of 0.39.
For UAACAGGGGGCCACAGCAGAAGCGUUCUCGCCGCAGCCCCUGUCAGGUUCUGGUGAAUCUGCGAAUUCUGCUGUAUAUCUC [A28U U31C A47G], the self-cleavage was 0.38.
UAACAGGGGGCCACAGCAGAAGCGUUCUCGCCGCAGCCUCUGUCAGAUUCUGGUGUAUCUGCGAAUUCUGCUGUAUAUCCC [A28U U31C C39U A56U U80C] showed a self-cleavage of 0.19.
With UAACAGGGGGCCACAGCAGAAGCGUUCUCGUCGCAGCCCCCGUCAUAUUCUGGUGAAUCUGCGAAUCCUGCUGCAUAUCUC [A28U U41C G46U U67C U74C] the self-cleavage was 0.14.
UAACAGGGGGCCACAGCAGAAGCGUUCUCGACGCAGCCCCUGUCAGAUUCUGGUGAAUCUGCGGAUUCUGGUGUAUAUCUC [A28U U31A A64G C71G] gave a self-cleavage of 0.06.
With UAACAGGGGGCCACAGCAGAAGCGUUCUCGUCGCAGCCCCCGUCAGGUUCUGGUGGAUCUGCGAAUUCUGCUGUAUAUCUC [A28U U41C A47G A56G] the self-cleavage was 0.62.
For UAACAGGGGGCCACAGCAGAAGCGUUCUCGCCCCAGCCCCUGUCAGAUUCUGGUGAAUCUGCGAAUUCUGCUGUAUAUCUC [A28U U31C G33C], the self-cleavage was 0.08.
With UAACAGGGGGCCACAGCAGAAGCGUUCUCGUCGCAGCCCCUGACAGAUUCUGGUGAAUCUGCGAAUUCUGCUGCAUAUCUC [A28U U43A U74C] the self-cleavage was 0.94.
Variant UAACAGGGGGCCACAGCAGAAGCGUUCUCGUCGCAGCCCCUGUCAGACUCUGGUGAAUCUGCGAUUUUAGCUGGAUAUCUC [A28U U48C A65U C68U U69A U74G] has a self-cleavage of 0.06.
In the case of UAACAGGGGGCCACAGCAGAAGCGUUCUCGUCGCAGCCCCCGUCAGAUUCUGGUGAAUCUACGAAUUCUGCUGUAUACCUC [A28U U41C G61A U78C], the self-cleavage is reported as 0.47.
In the case of UAACAGGGGGCCACAGCAGAAGCGUUCUCGUCGCAGCCCCAGACAGACUCUGGUGAAUCUGCGAGUUCUGCUGUAUAUCCC [A28U U41A U43A U48C A65G U80C], the self-cleavage is reported as 0.09.
UAACAGGGGGCCACAGCAGAAGCGUUCUCGUCGCAGCCCCUGACAGAUUCUGGUGGAUCGGCGAAUUCUGCUGUAUAUCUC [A28U U43A A56G U60G] showed a self-cleavage of 0.13.
With UAACAGGGGGCCACAGCAGAAGCGUUCUCGUCGCAGCCCCUGCCAUAUUCUGGUGAACCUGCGAAUUCUGCUGUAUAUCUC [A28U U43C G46U U58C] the self-cleavage was 0.13.
Variant UAACAGGGGGCCACAGCAGAAGCGUUCUCGUCGCAGCCCCCGUCAGAUUCUGGUGAAUCUGCGUAUUCUGCUGUAUAUCCC [A28U U41C A64U U80C] has a self-cleavage of 0.53.
UAACAGGGGGCCACAGCAGAAGCGUUCUCGUCGCAGCCCCCGUCAGAUUCAGGUGAGCCUGCGAAUUCUGCUGUAUAUCUC [A28U U41C U51A A57G U58C] showed a self-cleavage of 0.24.
